Laboratory results: PMC9911399, “Two distinct binding modes provide the RNA-binding protein RbFox with extraordinary sequence specificity”
Numbering of substitutions follows the chain as printed; changes in the protein carry UniProt numbers. The list shows a part of the results.

T1: RBFOX1 RRM (Homo sapiens, UniProt Q9NWB1 109-208)
T1 sequence: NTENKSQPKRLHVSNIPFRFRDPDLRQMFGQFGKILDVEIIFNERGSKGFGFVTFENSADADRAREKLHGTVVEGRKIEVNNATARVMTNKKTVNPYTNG

B1: CUGACAU (DNA:RNA)
RNA: GGGAGACCGGAAUUCAGAUUGUCCCUGACAUUUAAAUCCCGUCGUAGCCACCA
DNA 1: CAATCTGAATTCCGGTCTCCC
DNA 2: TGGTGGCTACGACGGGATT
B2: AAAUACA (DNA:RNA)
RNA: GGGAGACCGGAAUUCAGAUUGUCCAAAUACAUUAAAUCCCGUCGUAGCCACCA
DNA 1: CAATCTGAATTCCGGTCTCCC
DNA 2: TGGTGGCTACGACGGGATT
B3: UUUUUGU (DNA:RNA)
RNA: B1 RNA with C25U, G27U, A28U, C29U, A30G
DNA 1: CAATCTGAATTCCGGTCTCCC
DNA 2: TGGTGGCTACGACGGGATT
B4: UCGUAAG (DNA:RNA)
RNA: B2 RNA with A25U, A26C, A27G, C30A, A31G
DNA 1: CAATCTGAATTCCGGTCTCCC
DNA 2: TGGTGGCTACGACGGGATT
B5: UUGCUCC (DNA:RNA)
RNA: B1 RNA with C25U, A28C, C29U, A30C, U31C
DNA 1: CAATCTGAATTCCGGTCTCCC
DNA 2: TGGTGGCTACGACGGGATT
B6: GGGCGCG (DNA:RNA)
RNA: B2 RNA with A25G, A26G, A27G, U28C, A29G, A31G
DNA 1: CAATCTGAATTCCGGTCTCCC
DNA 2: TGGTGGCTACGACGGGATT
B7: CACGGCA (DNA:RNA)
RNA: B2 RNA with A25C, A27C, U28G, A29G
DNA 1: CAATCTGAATTCCGGTCTCCC
DNA 2: TGGTGGCTACGACGGGATT
B8: GUAACCC (DNA:RNA)
RNA: B1 RNA with C25G, G27A, A30C, U31C
DNA 1: CAATCTGAATTCCGGTCTCCC
DNA 2: TGGTGGCTACGACGGGATT
B9: CUGUCGU (DNA:RNA)
RNA: B1 RNA with A28U, A30G
DNA 1: CAATCTGAATTCCGGTCTCCC
DNA 2: TGGTGGCTACGACGGGATT
B10: UGUGCAA (DNA:RNA)
RNA: B1 RNA with C25U, U26G, G27U, A28G, U31A
DNA 1: CAATCTGAATTCCGGTCTCCC
DNA 2: TGGTGGCTACGACGGGATT
B11: GAGGGCA (DNA:RNA)
RNA: B2 RNA with A25G, A27G, U28G, A29G
DNA 1: CAATCTGAATTCCGGTCTCCC
DNA 2: TGGTGGCTACGACGGGATT
B12: CCGUUCC (DNA:RNA)
RNA: B2 RNA with A25C, A26C, A27G, A29U, A31C
DNA 1: CAATCTGAATTCCGGTCTCCC
DNA 2: TGGTGGCTACGACGGGATT
B13: AUUACAC (DNA:RNA)
RNA: B1 RNA with C25A, G27U, U31C
DNA 1: CAATCTGAATTCCGGTCTCCC
DNA 2: TGGTGGCTACGACGGGATT
B14: GUUGGCA (DNA:RNA)
RNA: B2 RNA with A25G, A26U, A27U, U28G, A29G
DNA 1: CAATCTGAATTCCGGTCTCCC
DNA 2: TGGTGGCTACGACGGGATT
B15: AACGCCC (DNA:RNA)
RNA: B2 RNA with A27C, U28G, A29C, A31C
DNA 1: CAATCTGAATTCCGGTCTCCC
DNA 2: TGGTGGCTACGACGGGATT
B16: AGUUACG (DNA:RNA)
RNA: B2 RNA with A26G, A27U, A31G
DNA 1: CAATCTGAATTCCGGTCTCCC
DNA 2: TGGTGGCTACGACGGGATT
B17: CUUGGUC (DNA:RNA)
RNA: B1 RNA with G27U, A28G, C29G, A30U, U31C
DNA 1: CAATCTGAATTCCGGTCTCCC
DNA 2: TGGTGGCTACGACGGGATT
B18: GCUUGUC (DNA:RNA)
RNA: B2 RNA with A25G, A26C, A27U, A29G, C30U, A31C
DNA 1: CAATCTGAATTCCGGTCTCCC
DNA 2: TGGTGGCTACGACGGGATT
B19: GUGCCGG (DNA:RNA)
RNA: B1 RNA with C25G, A28C, A30G, U31G
DNA 1: CAATCTGAATTCCGGTCTCCC
DNA 2: TGGTGGCTACGACGGGATT
B20: UCAGAAU (DNA:RNA)
RNA: B2 RNA with A25U, A26C, U28G, C30A, A31U
DNA 1: CAATCTGAATTCCGGTCTCCC
DNA 2: TGGTGGCTACGACGGGATT
B21: GCCUUAC (DNA:RNA)
RNA: B2 RNA with A25G, A26C, A27C, A29U, C30A, A31C
DNA 1: CAATCTGAATTCCGGTCTCCC
DNA 2: TGGTGGCTACGACGGGATT
B22: CUCCUGA (DNA:RNA)
RNA: B1 RNA with G27C, A28C, C29U, A30G, U31A
DNA 1: CAATCTGAATTCCGGTCTCCC
DNA 2: TGGTGGCTACGACGGGATT
B23: UGCGGCC (DNA:RNA)
RNA: B2 RNA with A25U, A26G, A27C, U28G, A29G, A31C
DNA 1: CAATCTGAATTCCGGTCTCCC
DNA 2: TGGTGGCTACGACGGGATT
B24: AAACAAG (DNA:RNA)
RNA: B2 RNA with U28C, C30A, A31G
DNA 1: CAATCTGAATTCCGGTCTCCC
DNA 2: TGGTGGCTACGACGGGATT
B25: GGCAAGG (DNA:RNA)
RNA: B2 RNA with A25G, A26G, A27C, U28A, C30G, A31G
DNA 1: CAATCTGAATTCCGGTCTCCC
DNA 2: TGGTGGCTACGACGGGATT
B26: UGCUCUU (DNA:RNA)
RNA: B1 RNA with C25U, U26G, G27C, A28U, A30U
DNA 1: CAATCTGAATTCCGGTCTCCC
DNA 2: TGGTGGCTACGACGGGATT
B27: UCUACUA (DNA:RNA)
RNA: B1 RNA with C25U, U26C, G27U, A30U, U31A
DNA 1: CAATCTGAATTCCGGTCTCCC
DNA 2: TGGTGGCTACGACGGGATT
B28: AAUUAAC (DNA:RNA)
RNA: B2 RNA with A27U, C30A, A31C
DNA 1: CAATCTGAATTCCGGTCTCCC
DNA 2: TGGTGGCTACGACGGGATT
B29: GGCUAAA (DNA:RNA)
RNA: B2 RNA with A25G, A26G, A27C, C30A
DNA 1: CAATCTGAATTCCGGTCTCCC
DNA 2: TGGTGGCTACGACGGGATT
B30: CCAAGCC (DNA:RNA)
RNA: B2 RNA with A25C, A26C, U28A, A29G, A31C
DNA 1: CAATCTGAATTCCGGTCTCCC
DNA 2: TGGTGGCTACGACGGGATT
B31: UAAGGAU (DNA:RNA)
RNA: B2 RNA with A25U, U28G, A29G, C30A, A31U
DNA 1: CAATCTGAATTCCGGTCTCCC
DNA 2: TGGTGGCTACGACGGGATT

Target: T1, RBFOX1 RRM
Test: EMSA; HiTS-Eq, 1 nM pool, 10 min; buffer printed only for the single-RNA assays: 10 mM Tris pH 7.5, 150 mM NaCl, 3.4 mM EDTA, 0.001% NP-40, 30 C
Details: tags: His6 N-terminal (pET28a); label: 5' 32P
Outline: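 Purified wild-type or mutant RbFox RRM at increasing concentrations was equilibrated with 1 nM of 5′-radiolabelled RNA carrying 7 randomized nucleotides for 10 min in 50 µL. Unbound RNA was separated by 8% native PAGE and sequenced. Relative association constants came from read-count changes of each RNA species compared with the control reaction, normalised to the cognate motif.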

Row | Binder | binding signal
1 | B1 | 0.00749 KA relative to UGCAUGU
2 | B2 | 0.000257 KA relative to UGCAUGU
3 | B3 | 0.0281 KA relative to UGCAUGU
4 | B4 | 0.019 KA relative to UGCAUGU
5 | B5 | 0.0158 KA relative to UGCAUGU
6 | B6 | 0.0176 KA relative to UGCAUGU
7 | B7 | 0.0118 KA relative to UGCAUGU
8 | B8 | 0.00527 KA relative to UGCAUGU
9 | B9 | 0.0193 KA relative to UGCAUGU
10 | B10 | 0.0146 KA relative to UGCAUGU
11 | B11 | 0.0138 KA relative to UGCAUGU
12 | B12 | 0.00895 KA relative to UGCAUGU
13 | B13 | 0.00181 KA relative to UGCAUGU
14 | B14 | 0.024 KA relative to UGCAUGU
15 | B15 | 0.00394 KA relative to UGCAUGU
16 | B16 | 0.00991 KA relative to UGCAUGU

Row | Binder | binding signal
17 | B17 | 0.0198 KA relative to UGCAUGU
18 | B18 | 0.0386 KA relative to UGCAUGU
19 | B19 | 0.0127 KA relative to UGCAUGU
20 | B20 | 0.00617 KA relative to UGCAUGU
21 | B21 | 0.00923 KA relative to UGCAUGU
22 | B22 | 0.014 KA relative to UGCAUGU
23 | B23 | 0.0274 KA relative to UGCAUGU
24 | B24 | 0.000969 KA relative to UGCAUGU
25 | B25 | 0.0129 KA relative to UGCAUGU
26 | B26 | 0.0146 KA relative to UGCAUGU
27 | B27 | 0.00365 KA relative to UGCAUGU
28 | B28 | 0.0029 KA relative to UGCAUGU
29 | B29 | 0.003 KA relative to UGCAUGU
30 | B30 | 0.00133 KA relative to UGCAUGU
31 | B31 | 0.00587 KA relative to UGCAUGU
